Results from PubChem BioAssay AID651820 (National Center for Advancing Translational Sciences (NCATS), 2012).
About 12,000 (3.5%) of roughly 340,000 compounds were called active. The inconclusive results got no clear call from the source; some entries with a clear call stand among them for comparison. Calls come from the whole dose curve; as a rule, active = well fitted inhibition curve with a large enough effect; inconclusive = small, poorly fitted or top-dose-only effect, or another doubt; inactive = no such curve, though single readings can be large or run the other way. Potencies of inconclusive entries are left out as doubtful fits.

assay: qHTS Assay for Inhibitors of Hepatitis C Virus (HCV); details: Huh7.5.1 HCVcc-Cre (HCVcc is cell-culture hepatitis C virus) infection, luciferase reporter, 44 h; activity change, negative = inhibition: at 41.8 µM (top of the series) unless noted
Summary of the method: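 Whole-lifecycle infectious HCVcc-Cre system; cells 1,000/well, compound then virus (~0.5 moi) added 4 h after plating, 44 h culture. Luciferase read 15 sec following 15 min substrate incubation, room temp.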
% is set by controls: 0 for no effect and ±100 for the full control effect; potency is the fitted concentration of half-maximal effect; tags give direction and shape of the fitted curve.

| SMILES | activity change, negative = inhibition | Potency |
| --- | --- | --- |
| COc1ccc(CCC(C)NCc2ccccc2OC)cc1 (stereo not given) | inactive: 0.0766% |  |
| CN(CCc1ccccc1)C(=O)c1cc(COc2cccc(C(F)(F)F)c2)on1 |  | inconclusive [inhibitor, single point] |
| CC(CC(=O)N1CCN(c2ccccc2)CC1)S(=O)(=O)c1ccc2c(c1)NC(=O)CS2 (stereo not given) |  | inconclusive [inhibitor, full curve] |
| CC(=O)N1CCCc2cc(S(=O)(=O)N3CCCC(C(=O)NCc4ccc(C)cc4)C3)ccc21 (stereo not given) |  | inconclusive [inhibitor, single point] |
| COC(=O)c1cc2oc(C)cc2n1CC(=O)Nc1cc(C)cc(C)c1 |  | inconclusive [inhibitor, full curve, poor fit] |
| COc1ccc(/C=N/n2c(=S)n(C)c3ccccc32)cc1OC |  | inconclusive [inhibitor, single point] |
| Cc1sc(NC(=O)CCl)c(C(=O)c2ccccc2)c1C |  | inconclusive [inhibitor, single point] |
| O=C(Nc1cccc(S(=O)(=O)NCc2ccco2)c1)c1ccc(Cl)cc1 |  | inconclusive [inhibitor, partial curve] |
| CCOc1ccc(C(C)=O)cc1COC(=O)CCc1cc(OC)c(OC)c(OC)c1 |  | inconclusive [inhibitor, single point] |
| COc1ccc(-c2cn3cc(C)ccc3n2)cc1Br |  | inconclusive [inhibitor, single point] |
| CC1CC(=O)Nc2ccccc2N1S(=O)(=O)c1ccccc1 (stereo not given) | inactive: 3.49% |  |
| Cc1cc(C)cc(N(C(=O)Cc2cccs2)C(C(=O)NC2CCCC2)c2ccc(C)o2)c1 (stereo not given) |  | inconclusive [inhibitor, full curve, poor fit] |
| CCOc1ccc(S(=O)(=O)N2CCCC(C(=O)NCc3ccncc3)C2)cc1Cl (stereo not given) | inactive: -11.1% |  |
| Cc1ccc(NC(=O)C(=O)c2c[nH]c3ccccc23)cc1 | inactive: -7.06% |  |
| CC(=O)C1=C(c2ccccc2)N(C(C)=O)n2c(C)nnc2S1 |  | inconclusive [inhibitor, single point] |
| CN(C)S(=O)(=O)N1CCCC(C(=O)c2ccc(C(F)(F)F)cc2)C1 (stereo not given) | inactive: 0.354% |  |
| O=C1NC(=S)NC(=O)C1=Cc1cccn1-c1ccc(O)cc1 |  | inconclusive [inhibitor, partial curve] |
| O=C(Nc1ccc2[nH]ccc2c1)c1ccccc1 | inactive: 17.7% |  |
| O=C(Nc1ccc(Cl)cc1)C1CCCCN1S(=O)(=O)c1ccccc1 (stereo not given) |  | inconclusive [inhibitor, partial curve] |
| Nc1nc2ccccc2[nH]1 | inactive: 10.6% |  |
| Nc1c(N(CCC2=CCCCC2)C(=O)COc2ccc([N+](=O)[O-])cc2)c(=O)[nH]c(=O)n1Cc1ccccc1 |  | inconclusive [inhibitor, partial curve] |
| COc1ccccc1NS(=O)(=O)c1cc(NC(=O)CCNC(C)=O)ccc1N1CCCCC1 |  | inconclusive [inhibitor, partial curve] |
| COc1cccc(NC(=O)/C=C/c2ccccc2[N+](=O)[O-])c1 |  | inconclusive [inhibitor, partial curve] |
| O=C(c1oc2ccccc2c1N1CCCCC1)N1CCCCC1 |  | inconclusive [inhibitor, single point] |

| SMILES | activity change, negative = inhibition | Potency |
| --- | --- | --- |
| CCOC(=O)c1sc2ncnc(N3CCN(CC)CC3)c2c1C |  | inconclusive [inhibitor, single point] |
| O=C1NC(=S)S/C1=C\c1coc2ccccc2c1=O | inactive: -7.62% |  |
| CCOC(=O)/C(=C/C=C1\Sc2cc(C)c(C)cc2N1CC)C(C)=O |  | active: 11.2 µM |
| CC(Oc1ccc(Br)cc1Br)C(=O)Nc1cccnc1 (stereo not given) |  | inconclusive [inhibitor, single point] |
| Cc1ccc(C)c(N2CCN(c3ccncc3N)CC2)c1 |  | inconclusive [inhibitor, single point] |
| O=C(O)c1cc2ccc3ccccc3c2oc1=O | inactive: -7.66% |  |
| CCOC(=O)C1(Cc2cccc(F)c2)CCN(C(=O)c2cnc(C)cn2)CC1 | inactive: 0.145% |  |
| COCCn1c(C)cc(C(=O)CSc2nc3ccccc3c(=O)[nH]2)c1C |  | active: 8.91 µM |
| CCOc1cc2[nH]c(=O)n(CCCCCC(=O)NCc3ccco3)c(=O)c2cc1OCC |  | inconclusive [inhibitor, full curve, poor fit] |
| Cc1cccc(N2CCN(S(=O)(=O)c3ccc4c(c3)NC(=O)CS4)CC2)c1C |  | inconclusive [inhibitor, partial curve] |
| C=C1CCN(c2ccc(C(=O)NCCC)cc2[N+](=O)[O-])CC1 |  | active: 10 µM |
| Cc1cccc(C(=O)n2cnnc2N)c1 | inactive: -2.51% |  |
| CCOc1ccc(NC2=CC(=O)CCC2)cc1 |  | inconclusive [inhibitor, partial curve, poor fit] |
| CCOC(=O)C1CCN(C(=O)CNC(=O)c2nn(-c3ccc(OC)c(Cl)c3)c(=O)c3ccccc23)CC1 |  | inconclusive [inhibitor, partial curve] |
| O=C1C=C(NC2CCCCC2)CCC1 | inactive: 30.9% |  |
| COc1ccc(N2CCN(C(=O)CCN3C(=S)NC(C)(C)CC3C)CC2)cc1 (stereo not given) | inactive: 8.54% |  |
| Cc1ccc(C)c(-c2ccc(=O)n(Cc3c(F)cccc3Cl)n2)c1 |  | inconclusive [inhibitor, single point] |
| CC1CCCC(NC(=O)C2c3ccccc3C(=O)N2Cc2cccs2)C1C (stereo not given) | inactive: -26.6% |  |
| COc1ccc(OC)c(NC(=O)CN2C(=O)C(=O)N(Cc3ccccc3)C2=O)c1 | inactive: 5.14% |  |
| O=C(C[C@H]1C/C=C\CC[C@H](Cc2ccc(F)cc2)C(=O)O[C@@H](c2ccccc2)CNC1=O)N[C@@H](CO)Cc1ccccc1 |  | inconclusive [inhibitor, single point] |
| CCOC(=O)C1=C(N)OC2=C(C(=O)CCC2)C1c1ccc(C)s1 (stereo not given) | inactive: 4.75% |  |
| CC(C)(C)C(=O)Nc1nc(-c2ccccc2)ns1 |  | inconclusive [inhibitor, partial curve] |
| COc1cc(OC)cc(-c2c(-c3cccs3)c3cc(-c4ccc(OC)c(OC)c4)ccc3n2C)c1 |  | inconclusive [inhibitor, partial curve] |
| C/C(=C\C(=O)c1ccc(F)cc1)Nc1ccc(N2CCOCC2)cc1 |  | inconclusive [inhibitor, partial curve, poor fit] |

| SMILES | activity change, negative = inhibition | Potency |
| --- | --- | --- |
| Clc1ccc(CN(CC2CCCO2)C(c2cccs2)c2nnnn2C2CCCC2)cc1 (stereo not given) |  | inconclusive [inhibitor, single point] |
| COc1ccc(CC(=O)Nc2cccc(S(=O)(=O)N3CCCC3)c2)cc1OC |  | active: 4.47 µM |
| CN(N=Nc1cccc([N+](=O)[O-])c1)c1cccc([N+](=O)[O-])c1 |  | inconclusive [inhibitor, partial curve] |
| Cc1ccc(NC(=O)/C=C/c2ccc([N+](=O)[O-])s2)c(C)c1 |  | inconclusive [inhibitor, full curve] |
| O=C(N/N=C/c1ccc2c(c1)OCO2)c1ccc(NC(=O)c2ccc(F)cc2)cc1 | inactive: -20.7% |  |
| COC(=O)c1oc2ccc(Cl)cc2c1-n1cccc1 |  | inconclusive [inhibitor, partial curve] |
| COC(=O)/C(=C\Nc1ccc(Cl)cc1Cl)NC(=O)c1ccccc1 |  | inconclusive [inhibitor, single point] |
| COc1ccccc1NC(=O)CN1CCN(CC(=O)Nc2ccc(C)c(F)c2)CC1 |  | inconclusive [inhibitor, partial curve, poor fit] |
| COc1ccc(NC(=O)c2ccc3c(c2)NC(=O)CS3)cc1S(=O)(=O)Nc1ccc(Br)cc1 |  | inconclusive [inhibitor, single point] |
| Cc1cc(/C=N/N2CCN(C)CC2)c(C)n1-c1ccc(Cl)cc1 |  | inconclusive [inhibitor, single point] |
| COc1ccc(S(=O)(=O)Nc2ccc(C)cn2)cc1 | inactive: 21.1% |  |
| O=C1C=C(c2ccc3[nH]ccc3c2)C[C@@H](c2ccc(F)cc2)C1 |  | inconclusive [inhibitor, single point] |
| O=C(NCc1cccs1)C(=O)NCC(c1ccco1)N1CCN(c2ccccc2F)CC1 (stereo not given) |  | active: 11.2 µM |
| Cc1[nH]c2ccccc2c1C(=O)CN1CCN(C2CCCCC2)CC1 |  | inconclusive [inhibitor, single point] |
| Cc1ccc(C(=O)OC(C)C(=O)NC2CCCCC2C)s1 (stereo not given) |  | inconclusive [inhibitor, single point] |
| COc1ccc(NC(=O)N(C)C[C@H]2Oc3ccc(NC(=O)NC4CCCCC4)cc3C(=O)N([C@H](C)CO)C[C@@H]2C)cc1 | inactive: 6.55% |  |
| CC(C)N(Cc1cnn(C)c1)Cc1nc(COc2ccccc2)no1 | inactive: 11.6% |  |
| CC(C)n1ncc2c(C(=O)NCCOc3ccccc3F)cc(C3CC3)nc21 |  | inconclusive [inhibitor, partial curve] |
| Cc1ccccc1CNc1ccc(C(CC(N)=O)NC(=O)c2ccc(Br)cc2)cc1[N+](=O)[O-] (stereo not given) |  | inconclusive [inhibitor, single point] |
| c1ccc(Cn2nnnc2CN2CCN(Cc3ccc4c(c3)OCO4)CC2)cc1 | inactive: 18.7% |  |
| COc1ccc(N2CCN(C(=O)c3ccc(COc4ccc([N+](=O)[O-])cc4)o3)CC2)cc1 |  | inconclusive [inhibitor, partial curve] |
| COc1ccc(C(=O)OCCNC(=O)c2c(Cl)nc3ccccn23)cc1 |  | inconclusive [inhibitor, single point] |
